Each structure is given as a SMILES string. The whole screen tested about 310,000 compounds, of which about 14,000 (4.5%) showed an effect of 50% or more. The effect is printed as a negative number. The list shows a part of the results.
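Note: peak tail current of the secondary pulse compared with the same well before compound.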

human ether-à-go-go-related gene (hERG) potassium channel, sequence (Q12809 whole entry, looked up): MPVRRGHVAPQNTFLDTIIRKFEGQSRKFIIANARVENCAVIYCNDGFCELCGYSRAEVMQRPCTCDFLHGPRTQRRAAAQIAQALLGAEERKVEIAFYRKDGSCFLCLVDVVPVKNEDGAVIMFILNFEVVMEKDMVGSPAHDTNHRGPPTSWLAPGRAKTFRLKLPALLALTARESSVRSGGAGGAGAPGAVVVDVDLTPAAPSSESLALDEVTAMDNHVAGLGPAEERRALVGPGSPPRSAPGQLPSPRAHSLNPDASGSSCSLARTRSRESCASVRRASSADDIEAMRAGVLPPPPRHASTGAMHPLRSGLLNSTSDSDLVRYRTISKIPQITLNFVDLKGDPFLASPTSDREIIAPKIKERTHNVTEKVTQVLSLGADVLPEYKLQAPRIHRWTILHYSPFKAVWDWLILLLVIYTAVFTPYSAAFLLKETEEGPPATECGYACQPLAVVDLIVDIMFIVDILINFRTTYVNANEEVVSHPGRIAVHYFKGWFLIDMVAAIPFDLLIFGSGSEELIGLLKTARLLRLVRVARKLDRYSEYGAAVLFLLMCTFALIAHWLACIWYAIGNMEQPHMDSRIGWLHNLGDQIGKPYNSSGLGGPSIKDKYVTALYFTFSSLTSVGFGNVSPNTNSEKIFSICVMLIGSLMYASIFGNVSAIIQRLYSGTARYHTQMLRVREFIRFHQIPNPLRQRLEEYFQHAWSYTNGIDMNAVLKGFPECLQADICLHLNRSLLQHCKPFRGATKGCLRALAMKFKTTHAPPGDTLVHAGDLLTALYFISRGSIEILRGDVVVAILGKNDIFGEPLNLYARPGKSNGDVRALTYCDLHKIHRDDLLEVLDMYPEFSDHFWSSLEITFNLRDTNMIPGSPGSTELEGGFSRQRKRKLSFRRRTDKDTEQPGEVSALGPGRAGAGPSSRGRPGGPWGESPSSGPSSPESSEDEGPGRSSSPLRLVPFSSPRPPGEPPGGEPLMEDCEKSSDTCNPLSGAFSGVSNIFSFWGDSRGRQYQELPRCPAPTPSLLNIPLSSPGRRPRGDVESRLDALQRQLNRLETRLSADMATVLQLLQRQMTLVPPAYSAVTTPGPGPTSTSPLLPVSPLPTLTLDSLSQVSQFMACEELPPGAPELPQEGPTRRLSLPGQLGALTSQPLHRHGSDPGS

The assay addresses human ether-à-go-go-related gene (hERG) potassium channel (human, UniProt Q12809). As to the kind of experiment: primary screen, population patch clamp on CHO cells stably expressing hERG.
Turning to `O=C(NCCC1CCCCN1S(=O)(=O)c1cccs1)C(=O)Nc1ccccc1F` (stereo not drawn), the “hERG current change (%, negative = inhibition) at 10uM” value was -1.31%.
For `O=C(CCCc1ccccc1)NCCS(=O)(=O)N1CCN(c2ccccc2F)CC1` the value was -18.5%; for `CCC(=O)Nc1ccc(-c2nnc(SCc3ccc(C(=O)Nc4nccs4)cc3)n2CC)cc1`, 9.68%; for `CCS(=O)(=O)c1ccc2oc(Nc3ccc(OC)cc3)nc2c1`, 2.92%.
Next, `CCOc1ccc(C(=O)NCC(=O)NCCCSc2ccccc2)cc1OCC`: -18.1%.
With `COc1ccc(-n2ncc(C(=O)NC3CC3)c2C2CCN(C(=O)OC(C)(C)C)CC2)cc1`, the “hERG current change (%, negative = inhibition) at 10uM” value was 3.28%.
Next, `Cc1ccc(/C(O)=C2\C(=O)C(=O)N(C)C2c2ccc([N+](=O)[O-])cc2)cc1` (stereo not drawn): 13.1%.
Next, `Cc1ccc(/C=C/C(=O)c2ccc(C)cc2)cc1`: 22.6%.
As to `CCN(c1cccc(C)c1)S(=O)(=O)c1cc2c3c(c1)CCC(=O)N3CCC2`, the “hERG current change (%, negative = inhibition) at 10uM” value was -30.5%.
Next, `O=C(NCCCc1ccccc1)c1cccc([N+](=O)[O-])c1`: -23%.
With `COc1cccc(-n2c(Cc3cc(=O)[nH]c(=O)[nH]3)nnc2SCC(=O)NC2CCCCC2)c1`, the “hERG current change (%, negative = inhibition) at 10uM” value stood at 13.4%.
With `O=C(C1CCCCN1S(=O)(=O)c1ccccc1[N+](=O)[O-])N1CCCC1` (stereo not drawn), the “hERG current change (%, negative = inhibition) at 10uM” value stood at 10.9%.
Regarding `NS(=O)(=O)c1cccc(NC(=O)CSc2nc3ccccc3[nH]2)c1`, the “hERG current change (%, negative = inhibition) at 10uM” value is given as 14.8%.
Next, `O=C(Nc1cccn2ncnc12)c1ccc(Cl)cc1Cl`: -2.56%; `CCOC(=O)C1CCCN(C(=O)Nc2ccccc2)C1` (stereo not drawn): 4.59%; `Cc1ccc(-n2nnc(-c3cccnc3Cl)n2)cc1`: 22.8%.
Next, `COc1cccc(/C=N/Nc2nn3cnnc3c3ccccc23)c1O`: -3.08%; `C=C(C)c1cccc(C(C)(C)NC(=O)NC2CCN(Cc3ccccc3)CC2)c1.Cl`: -55.5%; `Cc1noc(C)c1S(=O)(=O)N1CCC(C(=O)c2ccccc2)CC1`: -43%.
Turning to `CC(C)(C)C(=O)Nc1nnc(Cc2ccccc2)s1`, the “hERG current change (%, negative = inhibition) at 10uM” value is listed as 0.154%.
For `COc1cccc(Cn2nc(C(=O)O)c3ccccc3c2=O)c1` the value was 9.63%.
Next, `CCCCOc1ccc(NC(=O)C2OC3OC(C)(C)OC3C3OC(C)(C)OC23)cc1` (stereo not drawn): 20.7%; `COc1ccccc1-c1nnc(SCC(=O)NC2CCCCC2)n1C`: 23.6%; `Cc1ccc(S(=O)(=O)Nc2c(C)nn(C)c2C)cc1C`: 15.2%.

Values taken from paper PMC4336329 (PLoS ONE, 2015).
